Laboratory results published in the RNAGym collection of RNA variant scans (doi:10.7554/elife.90254).
The source gives no read counts; variants with many changes may rest on few reads.

B1: LINE1-mini (parent)
chain: GGCAGAGCUCAACACAGCGUGGCAAAGUGGCUGUGGCUAGACUGCC

Variants of: B1
Experiment: self-cleavage, relative activity (ratio to wild type); higher = more cleavage; in vitro, sequencing; the parent is a self-cleaving ribozyme

Row | Variant | self-cleavage
1 | GGCAGAGCUCAGCACAGCGUGGCAAAGCGUUUGUGGCUAGACAGCC [A12G U28C G30U C31U U43A] | 0.01
2 | GGCAGAGCUCAGCACAGCGUGGCAAAGUGGCUGACGCUACACGGCC [A12G U34A G35C G40C U43G] | 0.03
3 | GGCAGAGCUCAUCGCUGCGUGGCAAAGUGGCUGUGGCUAUACUGCC [A12U A14G A16U G40U] | 0.05
4 | GGCAGAGCUCAUCUCAGCGUGACAAAGUGGCUGUGGUUAGACUUCC [A12U A14U G22A C37U G44U] | 0.02
5 | GGCAGAGCUCAUCACCGCGUGGCCAAGUGGCUGUGGCUAGACUGCC [A12U A16C A24C] | 0
6 | GGCAGAGCUCAUCACCACGUGGCAAAGUGGCUGUGUCUAGACUGCC [A12U A16C G17A G36U] | 0.03
7 | GGCAGAGCUCAUCACCGCGUGGCAAAAUGGCUGUGGCUAGACUUCC [A12U A16C G27A G44U] | 0.02
8 | GGCAGAGCUCAUCACUACGUGGCAAAGUGUCUGGUGCUAGACUGCC [A12U A16U G17A G30U U34G G35U] | 0
9 | GGCAGAGCUCAUCACUCCGUGGCAAAGUGGCUGUGGUUAGACUGCC [A12U A16U G17C C37U] | 0.07
10 | GGCAGAGCUCAUCACUGCGUAGCAAAGUGGCUGUGGCUAGCCUUCC [A12U A16U G21A A41C G44U] | 0.01
11 | GGCAGAGCUCAUCACAGCGUGGCCAAGUGACUGUGGCUAGACUGCC [A12U A24C G30A] | 0.09
12 | GGCAGAGCUCAUCACAGCGUGGCUAAGUGGGUGUGGCUAGACUGCC [A12U A24U C31G] | 0.01
13 | GGCAGAGCUCAUCACAGCGUGGCACACUGGCUGUGGCUAGACUGCC [A12U A25C G27C] | 0.04
14 | GGCAGAGCUCAUCACAGCGUGGCACAGUAGCUGUGGCUAGACCUCC [A12U A25C G29A U43C G44U] | 0.06
15 | GGCAGAGCUCAUCACAGCGUGGCAUAGGGGCUGUGGCCAGACUGAC [A12U A25U U28G U38C C45A] | 0.06
16 | GGCAGAGCUCAUCACAGCGUGGCAUAGUGGCUGCGGUUAGACUGAC [A12U A25U U34C C37U C45A] | 0.01
17 | GGCAGAGCUCAUCACAGCGUGGCAAAGUGGCUGUGGCUAGUCUCCC [A12U A41U G44C] | 0.1
18 | GGCAGAGCUCAUAACAGCGUGGGAAAGUGGCUGUCGCUAGACUGCC [A12U C13A C23G G35C] | 0.04
19 | GGCAGAGCUCAUAACAGCGUGUCAAAGUGGCUGUGGCUAGACCGCC [A12U C13A G22U U43C] | 0.06

Row | Variant | self-cleavage
20 | GGCAGAGCUCAUAACAGCGAGGCAACGUAGCUCUGGCUAGACUGCC [A12U C13A U20A A26C G29A G33C] | 0.05
21 | GGCAGAGCUCAUAACAGCGAGGCAAAGUGGAUAUGGCUAGACUGCC [A12U C13A U20A C31A G33A] | 0.01
22 | GGCAGAGCUCAUGACUGCGUGGCAAAGUGGCUGUGGCUAGACUGCC [A12U C13G A16U] | 0.08
23 | GGCAGAGCUCAUGACAGCGUGUCAAAACGACUGUGGCUAGACUGCC [A12U C13G G22U G27A U28C G30A] | 0.32
24 | GGCAGAGCUCAUGACAGCGUGGCAAAGUGGCUGUCGCUAAACUGCC [A12U C13G G35C G40A] | 0.04
25 | GGCAGAGCUCAUUCCAGCUUGGCAAAGUGGCUGUGGCUAGACUACC [A12U C13U A14C G19U G44A] | 0.02
26 | GGCAGAGCUCAUUACAGCGUGGGUAAGCGGCUGUGGCUAGACUGCG [A12U C13U C23G A24U U28C C46G] | 0.19
27 | GGCAGAGCUCAUUACAGCGUGGCAAAGUGGCUGUGGAUAGACUGCU [A12U C13U C37A C46U] | 0.06
28 | GGCAGAGCUCAUCAAUGCGUGGCAAAGUGGCUGUGGCUAGACUGCC [A12U C15A A16U] | 0.02
29 | GGCAGAGCUCAUCAAAGCGUGGCAAAGUGGCUCUGGCUAGACUGCC [A12U C15A G33C] | 0.02
30 | GGCAGAGCUCAUCAAAGCGUGGCAAAGUGGCUGUGGCUACACUGCC [A12U C15A G40C] | 0.07
31 | GGCAGAGCUCAUCAAAGCGCGCCAAAUUGGCUGUGGCUAGACUGCC [A12U C15A U20C G22C G27U] | 0.08
32 | GGCAGAGCUCAUCAGAGCGUGGCAGAGUGCCUUUGGCUAGACUGCC [A12U C15G A25G G30C G33U] | 0.01
33 | GGCAGAGCUCAUCAGAGCGUGGUAAGUUGGCUGUGGCUAGACUGCC [A12U C15G C23U A26G G27U] | 0
34 | GGCAGAGCUCAUCAGAGCGUGGCAAAGUGGCUGUGGCGAGACUGCC [A12U C15G U38G] | 0
35 | GGCAGAGCUCAUCAUAGCGUGGCAAAGUGGCUGUGGCUAUACUGCC [A12U C15U G40U] | 0.03
36 | GGCAGAGCUCAUCAUAGCGUGGCAAAGUGGCGGUUUCUAGACUGCC [A12U C15U U32G G35U G36U] | 0.01
37 | GGCAGAGCUCAUCACAGUGUGGCAAAGUAGCUGUGGCUAGACUGCC [A12U C18U G29A] | 0.76
38 | GGCAGAGCUCAUCACAGUGUGGCAAAGUGGCUGUGGCUAGACUACC [A12U C18U G44A] | 0.18

Row | Variant | self-cleavage
39 | GGCAGAGCUCAUCACAGCGUGGAAAAGUGGCUGUUGCUAGACGGCC [A12U C23A G35U U43G] | 0.34
40 | GGCAGAGCUCAUCACAGCGUGGGAAAGAGGCGGUGGCUAGACUGUC [A12U C23G U28A U32G C45U] | 0.03
41 | GGCAGAGCUCAUCACAGCGUGGUAAUGUGGCUGUGGUUAGACUGCC [A12U C23U A26U C37U] | 0
42 | GGCAGAGCUCAUCACAGCGUGGUAAAGUGGCUGUCGCUAGACUUCC [A12U C23U G35C G44U] | 0.05
43 | GGCAGAGCUCAUCACAGCGUGGUAAAGCGGCUGUGGCUAGACUGCC [A12U C23U U28C] | 0.03
44 | GGCAGAGCUCAUCACAGCGUGGCAAAGUGGAUGUGGCUAAACUGCC [A12U C31A G40A] | 0.05
45 | GGCAGAGCUCAUCACAGCGUGGCAAAGUGGCUGUGGAGAGCCUGCC [A12U C37A U38G A41C] | 0.01
46 | GGCAGAGCUCAUCACAGCGUGGCAAAGUGGCUGUGGGUAGACUGCU [A12U C37G C46U] | 0.03
47 | GGCAGAGCUCAUCACAGCGUGGCAAAGUGGCUGUGGCUAGAAGGCC [A12U C42A U43G] | 0.03
48 | GGCAGAGCUCAUCACAGCGUGGCAAAGUGGCUGUGGCUAGAGUGAC [A12U C42G C45A] | 0.14
49 | GGCAGAGCUCAUCACAGCGUGGCAAAGUGGCUGUGGCUAGACUGUA [A12U C45U C46A] | 0.37
50 | GGCAGAGCUCAUCACAACGUGGCAAAGUGGCUGUGGCUAAGCUGCC [A12U G17A G40A A41G] | 0.02
51 | GGCAGAGCUCAUCACACCGUGGAAAAGUUGCUGUGGCUAGACUGCC [A12U G17C C23A G29U] | 0
52 | GGCAGAGCUCAUCACACCGUGGUAAAGUGGCUGUGGCUAGACUGCC [A12U G17C C23U] | 0.22
53 | GGCAGAGCUCAUCACACCGUGGCAAAGUGGCUGUGGCUAGACUGCG [A12U G17C C46G] | 0.04
54 | GGCAGAGCUCAUCACAUCGUGGCACAGUGGCUGUCGCUAGACUGCC [A12U G17U A25C G35C] | 0.11
55 | GGCAGAGCUCAUCACAUCAUGGCAAAGUGGCUGUGACUAGACAGCC [A12U G17U G19A G36A U43A] | 0.01
56 | GGCAGAGCUCAUCACAUCGUGGCAAAGUGGCCGUGGAUAGACUGCC [A12U G17U U32C C37A] | 0.01
